Whole data set: some 81,000 sequences, median “one-hybrid fitness for binding parS DNA” near -0.17, cut for the highest 2% near 0.51. The list shows a part of the results.
B1: Caulobacter ParB omega fusion; a variant is named by its letters at X, in order, B8GW30 (parent)
chain: MESVVVGEPGMSEGRRGLGRGLSALLGEVDAAPAQAPGEQLGGSREAPIEILQRNPDQPRRTFREEDLEDLSNSIREKGVLQPILVRPSPDTAGEYQIVAGERAWRAAQRAGLKTVPIMVRELDDLAVLEIGIIENVQRADLNVLEEALSYKVLMEKFERTQENIAQTIGKSXSHVANXMRLLXLPDEVQSYLVSGELTAXHARAIAAAADPVALAKQIIEGGLSVRETEALARKAPNLSAGKSKGGRPPRVKDTDTQALESDLSSVLGLDVSIDHRGSTGTLTITYATLEQLDDLCNRLTRGI

Variants of: B1
Test: one-hybrid fitness for binding parS DNA (scaled: cognate 1, non-cognate 0); higher = stronger binding
Conditions: with parS DNA site
How it was run: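 The reporter was HIS3, with the binding site 19 bp from the promoter, in E. coli USO used for bacterial one-hybrid selection of Caulobacter ParB libraries with four specificity codons randomised. Growth was on M9 lacking histidine, with 0.1 mM IPTG and 5 mM 3-AT, for 48 hours at 37°C. Illumina sequencing covered plasmids before and after selection; three replicate libraries were pooled and variants with under 10 reads dropped. A fitness score is the log change in variant-to-wild-type read ratio, rescaled to the cognate and non-cognate references.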

Row | Variant | one-hybrid fitness for binding parS DNA
1 | DNSC | ≤ 0.2
2 | CRKW | ≤ 0.2
3 | HCRV | ≤ 0.2
4 | KLPH | ≤ 0.2
5 | RHEC | 0.851
6 | TSRW | ≤ 0.2
7 | VGNT | ≤ 0.2
8 | MRSR | ≤ 0.2
9 | KMAW | ≤ 0.2
10 | NGLT | ≤ 0.2
11 | WNTH | ≤ 0.2
12 | TLYV | ≤ 0.2
13 | WYDG | ≤ 0.2
14 | TSHN | ≤ 0.2
15 | ANWT | ≤ 0.2
16 | HRMG | 0.211
17 | WNLR | ≤ 0.2
18 | IVKQ | ≤ 0.2
19 | RWMW | ≤ 0.2
20 | TSNS | ≤ 0.2
21 | LCYA | ≤ 0.2
22 | KCCS | ≤ 0.2
23 | ESSG | ≤ 0.2
24 | MKIV | ≤ 0.2
25 | RWHD | ≤ 0.2

Row | Variant | one-hybrid fitness for binding parS DNA
26 | KNMS | ≤ 0.2
27 | FTDC | ≤ 0.2
28 | KAHG | ≤ 0.2
29 | PYCL | ≤ 0.2
30 | PLQD | ≤ 0.2
31 | WEER | ≤ 0.2
32 | RNGY | 0.306
33 | VMLG | ≤ 0.2
34 | MGSR | ≤ 0.2
35 | TRDI | ≤ 0.2
36 | RFSS | 1.01
37 | MFLC | ≤ 0.2
38 | PFMV | ≤ 0.2
39 | GLNT | ≤ 0.2
40 | ISCD | ≤ 0.2
41 | ARKP | ≤ 0.2
42 | CQFR | ≤ 0.2
43 | DENV | ≤ 0.2
44 | WSPC | ≤ 0.2
45 | LHWI | ≤ 0.2
46 | EFFR | ≤ 0.2
47 | TFDT | ≤ 0.2
48 | FLGY | ≤ 0.2
49 | PCIG | ≤ 0.2
50 | QQVN | ≤ 0.2

Row | Variant | one-hybrid fitness for binding parS DNA
51 | GPST | ≤ 0.2
52 | REMW | ≤ 0.2
53 | HGMA | ≤ 0.2
54 | NNAN | ≤ 0.2
55 | ETRG | ≤ 0.2
56 | RQSN | 0.438
57 | NKPM | ≤ 0.2
58 | HHQC | ≤ 0.2
59 | SPAN | ≤ 0.2
60 | LCTI | ≤ 0.2
61 | MTFM | ≤ 0.2
62 | QHTH | ≤ 0.2
63 | QAWG | ≤ 0.2
64 | SCAV | ≤ 0.2
65 | ATIL | ≤ 0.2
66 | GMRC | ≤ 0.2
67 | GSFL | ≤ 0.2
68 | VQDY | ≤ 0.2
69 | VKTV | ≤ 0.2
70 | AHDS | ≤ 0.2
71 | RIQV | ≤ 0.2
72 | QYIC | ≤ 0.2
73 | DQIS | ≤ 0.2
74 | DPKN | ≤ 0.2
75 | TPAH | ≤ 0.2

Row | Variant | one-hybrid fitness for binding parS DNA
76 | EIVR | ≤ 0.2
77 | LYEW | ≤ 0.2
78 | PHKC | ≤ 0.2
79 | RAPI | ≤ 0.2
80 | PLYV | ≤ 0.2
81 | DISM | ≤ 0.2
82 | RQHR | ≤ 0.2
83 | HCMR | ≤ 0.2
84 | KLRH | ≤ 0.2
85 | PQAS | ≤ 0.2
86 | PSCR | ≤ 0.2
87 | NESG | ≤ 0.2
88 | RHRP | ≤ 0.2
89 | RPKW | ≤ 0.2
90 | ARFL | ≤ 0.2
91 | MDWP | ≤ 0.2
92 | VVAR | ≤ 0.2
93 | RGAF | ≤ 0.2
94 | FVMC | ≤ 0.2
95 | LRWE | ≤ 0.2
96 | SEYC | ≤ 0.2
97 | LISE | ≤ 0.2
98 | LHDG | ≤ 0.2
99 | RSTI | ≤ 0.2
100 | GGRS | ≤ 0.2

Row | Variant | one-hybrid fitness for binding parS DNA
101 | DTSS | ≤ 0.2
102 | FTNR | ≤ 0.2
103 | RSGK | ≤ 0.2
104 | RPAK | ≤ 0.2
105 | WHLR | ≤ 0.2
106 | ASKI | ≤ 0.2
107 | VLAW | ≤ 0.2
108 | VFLE | ≤ 0.2
109 | DRMA | ≤ 0.2
110 | AALF | ≤ 0.2
111 | NPEV | ≤ 0.2
112 | EYGG | ≤ 0.2
113 | AISC | ≤ 0.2
114 | PKRT | ≤ 0.2
115 | YFYT | ≤ 0.2
116 | YVMI | ≤ 0.2
117 | SERL | ≤ 0.2
118 | WSSC | ≤ 0.2
119 | QFRK | ≤ 0.2
120 | RTME | ≤ 0.2
121 | DLHG | ≤ 0.2
122 | VYPA | ≤ 0.2
123 | KDNG | ≤ 0.2
124 | SMTR | ≤ 0.2
125 | TPTN | ≤ 0.2

Row | Variant | one-hybrid fitness for binding parS DNA
126 | IYMG | ≤ 0.2
127 | YHFS | ≤ 0.2
128 | SDLY | ≤ 0.2
129 | NRRH | ≤ 0.2
130 | RPFR | ≤ 0.2
131 | HYTI | ≤ 0.2
132 | HFFL | ≤ 0.2
133 | QMHH | ≤ 0.2
134 | SAVV | ≤ 0.2
135 | AKLD | ≤ 0.2
136 | TMYP | ≤ 0.2
137 | EQHS | ≤ 0.2
138 | LERG | ≤ 0.2
139 | WKSR | ≤ 0.2
140 | HWAY | ≤ 0.2
141 | KRSN | ≤ 0.2
142 | LCYN | ≤ 0.2
143 | RKWF | 0.219
144 | TLSE | ≤ 0.2
145 | HAVS | ≤ 0.2
146 | NTLE | ≤ 0.2
147 | THMT | ≤ 0.2
148 | QNDW | ≤ 0.2
149 | CTDG | ≤ 0.2
150 | SVSI | ≤ 0.2

Row | Variant | one-hybrid fitness for binding parS DNA
151 | HYRD | ≤ 0.2
152 | ASQR | ≤ 0.2
153 | NITT | ≤ 0.2
154 | HRTG | 0.269
155 | QRKG | ≤ 0.2
156 | VGPA | ≤ 0.2
157 | CCWS | ≤ 0.2
158 | QQYQ | ≤ 0.2
159 | PHAI | ≤ 0.2
160 | PAIR | ≤ 0.2
161 | HANN | ≤ 0.2
162 | GFPL | ≤ 0.2
163 | HWPS | ≤ 0.2
164 | AIET | ≤ 0.2
165 | RDDC | ≤ 0.2
166 | NNKA | ≤ 0.2
167 | GRYD | ≤ 0.2
168 | KVIS | ≤ 0.2
169 | KYWG | ≤ 0.2
170 | VFSY | ≤ 0.2
171 | CIDT | ≤ 0.2
172 | YKHC | ≤ 0.2
173 | LTLT | ≤ 0.2
174 | TAHS | ≤ 0.2
175 | NCEV | ≤ 0.2

Row | Variant | one-hybrid fitness for binding parS DNA
176 | CLNS | ≤ 0.2
177 | MQNR | ≤ 0.2
178 | THVV | ≤ 0.2
179 | AFSC | ≤ 0.2
180 | TLYL | ≤ 0.2
181 | IAPV | ≤ 0.2
182 | CKTR | ≤ 0.2
183 | DCRR | ≤ 0.2
184 | HADR | ≤ 0.2
185 | NGSR | ≤ 0.2
186 | RWSP | ≤ 0.2
187 | AINM | ≤ 0.2
188 | SSKN | ≤ 0.2
189 | IGMS | ≤ 0.2
190 | YCEC | ≤ 0.2
191 | WASP | ≤ 0.2
192 | VRSQ | ≤ 0.2
193 | AIRR | ≤ 0.2
194 | MILI | ≤ 0.2
195 | TDWP | ≤ 0.2

Reference: a collection of fitness landscapes (doi:10.1016/j.celrep.2020.107928)
